From the RNAGym collection of RNA variant scans (doi:10.7554/elife.90254) come the findings set out here.

Read counts are not given, so values of variants with three or more changes are uncertain.

The labels stand for the following.
B1: LINE1-mini (parent)
chain: GGCAGAGCUCAACACAGCGUGGCAAAGUGGCUGUGGCUAGACUGCC

Variants of B1 are the subject of the series. In words: self-cleavage, relative activity (ratio to wild type); higher = more cleavage; in vitro, sequencing; the parent is a self-cleaving ribozyme.
In the case of C3G A12C C18U C23A, the self-cleavage amounted to 0.02.

As to C3G A26G A39C, the self-cleavage was 0.08.

On to C3G G21U G29A G30A, for which the self-cleavage worked out at 0.29.

Take C3G C13A A16C A26G: the self-cleavage was determined as 0.16. In the case of C3G C10G G21U G30U C46A it was 0.01; in that of C3G A24U G30U C46A, 0.1. In the case of C3G A24C C31U it was 0.04; in that of C3G G5C G35A G36U C45G, 0.03. In the case of C3G C13U C18G U38A it was 0.06; in that of C3G C10U C46G, 0.16; in that of C3G A24C U43G, 0.02. For the variant C3G C45G C46G, the self-cleavage was determined as 0.77. The same measure for C3G A12U U38A: 0.22; for C3G C13A U34G C37U: 0.03; for C3G A14C G19C U20A G27U C45G: 0.02. For C3G G22U A41C, the self-cleavage was found to be 0.24. The same measure for C3G G17U C23U: 0.21; for C3G C23U A25U U28A G35C U38A: 0.04; for C3G G7C U9G G21C G22C G30U C46G: 0.01.

As to C3G C10U G21U, the self-cleavage worked out at 0.17. Consider C3G A26U C31U, for which the self-cleavage was found to be 0.03. Turning to C3G G27U G40U, the self-cleavage came to 0.04. In the case of C3G A26G G33A, the self-cleavage was determined as 0.02.

Regarding C3G C8U G17U U43A, the self-cleavage is 0.27. For the variant C3G A14C A16C, the self-cleavage amounted to 0.01.

Regarding C3G C8A A12U, the self-cleavage is 0.18. The same measure for C3G C10U U38C U43G: 0.01.

As to C3G G17U G35U C45U, the self-cleavage was found to be 0.08. In the case of C3G A16G C18G G19A G33A U34G A39U it was 0.02; in that of C3G C10A A25U, 0.02. In the case of C3G G7C U9A A14U G17U A39C it was 0.03; in that of C3G A25U C37A C46U, 0.12. In the case of C3G C8A C10G G36C it was 0.02; in that of C3G C31G A41C, 0.04. For C3G C8A C15A U28A, the self-cleavage came to 0.13. In the case of C3G A14G C42U it was 0.05; in that of C3G G19U C42A, 0.09. As for C3G G27C G40U, the self-cleavage is 0.06. In the case of C3G C18A C42A G44C it was 0.09. In the case of C3G G5U C13U G19C G30U it was 0.15; in that of C3G A14U C45A C46G, 0.4; in that of C3G A25U G44A, 0.55.

In the case of C3G C23U G36U G44C, the self-cleavage amounted to 0.02.

As for C3G C10U G33A G44A C46A, the self-cleavage was 0.06. C3G G7C C10A G19A U28G G29U U43A: the self-cleavage amounted to 0.01. In the case of C3G G7C C8G G17U G40U C46G it was 0.06; in that of C3G G7C G22U, 0.02; in that of C3G G5A C23A G36U, 1.16.

In the case of C3G C10G G21C G22A G36C C45G, the self-cleavage stood at 0.01. In the case of C3G G7U A24C U38C it was 0.05.

For the variant C3G A14G U20A U38G, the self-cleavage was found to be 0.01. The same measure for C3G C15U A16G G19U U20C: 0.14; for C3G A14C G29C G30A U32C: 0.04.

For the variant C3G C15A U20A G30U, the self-cleavage came to 0.08. In the case of C3G G5A G21A G36C it was 1.57.

With C3G A16C C37G U38A A41C, the self-cleavage came out at 0.02. The same measure for C3G A16C U20C: 0.04.

As for C3G G22U A26G G29U G33U G36U A39G C45A, the self-cleavage was 0.08. The same measure for C3G C18U U32C A39C: 0.15; for C3G G7A C13G A26G: 0.13.

With C3G G21U A24G G36A C37A, the self-cleavage came to 0.31. Regarding C3G G5C C13G U20C G21A, the self-cleavage was determined as 0.09. With C3G G7U U20A A25C C37U, the self-cleavage was determined as 0.04. In the case of C3G C13U G19U U20C G30C C46G it was 0.04; in that of C3G C18G G22A, 0.1; in that of C3G C10G U20C U32C C46A, 0.02. The same measure for C3G C13A C15G: 0.13. In the case of C3G G7U G30U it was 0.25; in that of C3G G19C G30U C46U, 0.13.

Regarding C3G G5A G7A C10A C18U, the self-cleavage turned out to be 0.03. In the case of C3G C15G G22C it was 0.04; in that of C3G G5A C13U G22C, 0.63. The same measure for C3G C37G C45G: 0.07; for C3G G7U C13A: 2.26. In the case of C3G G5C C8A U9C G17U C45G it was 0.01. As to C3G A16U G19C A25G G40C, the self-cleavage was found to be 0. In the case of C3G G19C U20A G33C it was 0.1. The same measure for C3G G5U C15U G19U G36A: 0.09; for C3G G5C A12C C15A G40U: 0.05. The same measure for C3G G17A G29C C37A A39U G40C: 0.11; for C3G G5U C10G G44C: 0.06. In the case of C3G G17U A39G G40U, the self-cleavage was 0.03. In the case of C3G C10U G29A C37A, the self-cleavage was 0.08. As for C3G C18A G19A G22C G29C, the self-cleavage is 0.06.

C3G C23A C45G: the self-cleavage turned out to be 0.22. The same measure for C3G G17C A25C U28C: 0.03. On to C3G A16C A41G, for which the self-cleavage was found to be 0.08. The same measure for C3G C13U C15G: 0.03; for C3G C15A G30U G33A C37G: 0.18. The same measure for C3G A12G U32C: 0.17. C3G A14C A16U G17A: the self-cleavage was determined as 0.03.

Regarding C3G C15A G36A C37U, the self-cleavage is 0.15. Take C3G A16U G19C G21A C23G C45U: the self-cleavage is 0.06.

For the variant C3G C8U C13A C18A, the self-cleavage was determined as 1.19.

Regarding C3G C10A C18G G29U G40U, the self-cleavage is 0.02. In the case of C3G A24C G36A G40A it was 0.08; in that of C3G G5C C8G, 0.39. The same measure for C3G C15A U28C G33A G35C: 0.07.

C3G A16G G22C C23U G36A: the self-cleavage was 0.02. In the case of C3G C37A A39G it was 0.41; in that of C3G C8U A14G A26C U38C C42A, 0.03; in that of C3G C18U G30A, 0.17.

As to C3G C18U G30U, the self-cleavage was 0.07. On to C3G A16C G19A C31A, for which the self-cleavage was 0.02. The same measure for C3G A12G C23U U43G: 0. In the case of C3G C15U C46A it was 0.35; in that of C3G A16G G33U, 0.05. In the case of C3G G19U G44C it was 1.32.

Take C3G G19U G44A: the self-cleavage was 0.39.

As for C3G G7C C13A G19U G30U G40U, the self-cleavage came out at 0.02. The same measure for C3G G21U C23A U28G: 0.27; for C3G G7A A11U G29U G40U: 0.04; for C3G A16U A24C G36C G44A C45U: 0.01. In the case of C3G G5U G40A, the self-cleavage was 0.08. The same measure for C3G C31A C46U: 0.08; for C3G G5U G19A U28A: 0.78; for C3G C23G U34C: 0.07. In the case of C3G A16U G19C G22U C45U it was 0.64. In the case of C3G G22C C45G it was 0.1; in that of C3G G5U C18A, 0.14; in that of C3G G5U A39U, 0.14. On to C3G G5C A14G, for which the self-cleavage amounted to 0.09. The same measure for C3G A12G C13G: 0.16; for C3G G7U C8U U20G: 0.2.

Turning to C3G G5A C10U G33U C42A U43A, the self-cleavage was 0.03. Consider C3G G19A G21C G22A G29A, for which the self-cleavage is 0.16. In the case of C3G C8A C46U it was 0.47; in that of C3G C10A A12C A14C G19U, 0.04. In the case of C3G C18G U34C C45G it was 0.08; in that of C3G G22C A25G C45A, 0.03; in that of C3G C13A A25C C37G A39U, 0.11.

C3G C8A C31A: the self-cleavage was found to be 0.32.

For C3G C18G U28A, the self-cleavage came to 0.34.

In the case of C3G C8A C13G U28G G29A C37U, the self-cleavage came to 1.57. In the case of C3G G19A G21U it was 0.06. The same measure for C3G A24C G27A: 0.46. In the case of C3G A24C G27U it was 0.05. On to C3G A14G A16C, for which the self-cleavage came to 0.02.

Regarding C3G G5U C10A, the self-cleavage amounted to 0.04. Consider C3G C23G G40U A41C C45A, for which the self-cleavage came to 0.05. The same measure for C3G G21C C42U: 0.12; for C3G G5U U20C C45G: 0.12.

As for C3G C8G G33U, the self-cleavage was 0.06. In the case of C3G C8U C18A U32C C45A it was 0.17; in that of C3G A24U G35A C37A U43G, 0.01; in that of C3G A14U C18U A41C C46A, 0.07. In the case of C3G G7U C13U A14G G19U U34G it was 0.16. In the case of C3G C18U G27U U34G it was 0.03. Turning to C3G C8U A14G G27U, the self-cleavage was found to be 0.01. As to C3G C18U G40A C45A, the self-cleavage was 0.21.

Turning to C3G C13U A16U C18A C31G, the self-cleavage was 0.04.

With C3G G5U A14C U34G, the self-cleavage amounted to 0.03.

Regarding C3G G21A G33A, the self-cleavage amounted to 0.07. The same measure for C3G G19U C23A U34A: 0.3.

In the case of C3G C18U A25G U32C, the self-cleavage stood at 0.04.

For the variant C3G G5A U9C A11U A16C G27C G33A, the self-cleavage was found to be 0.01. As to C3G G27U U34G, the self-cleavage stood at 0.04. In the case of C3G A14U G22U G35U it was 0.1; in that of C3G A14U A24C, 0.34; in that of C3G C13A A14C C15U U32C, 0.11.

Turning to C3G C13A C15A G22U A41U, the self-cleavage is 0.14. The same measure for C3G A16C C23U U28A U34C: 0.15. In the case of C3G A12C C13G U34G C42G it was 0.02. Take C3G C13U G21C A25U G40U: the self-cleavage was 0.11. The same measure for C3G A26G C45G: 0.17; for C3G C15G G33U A39U: 0.03; for C3G C15A G27A G40U: 0.02.
